In all, about 350,000 compounds went through this assay and about 260 (0.074%) were called active. Inconclusive results, whose numbers are uncertain, are shown with a selection of clear calls. Calls come from the whole dose curve; as a rule, active = well fitted inhibition curve with a large enough effect; inconclusive = small, poorly fitted or top-dose-only effect; inactive = no such curve, though single readings can be large or run the other way. Potencies beside an inconclusive call are fits to weak or partial responses and may not hold up.
Each compound was assayed against Ferritin light chain (Equus caballus) (UniProt P02791) (assay: qHTS Assay for Identification of Novel General Anesthetics). Conditions: apoferritin/1-aminoanthracene competitive binding, fluorescence; activity change, negative = displacement: at 77.5 µM (top of the series).
How it was run: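 10 uM apoferritin + 50% sat. 1-AMA, PBS; cpd 10 min RT; Ex380/Em535 endpoint; normalized to free probe vs complex; 4-param Hill fit; propofol titration as pos. ctrl.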
% is set by controls: 0 for no effect and ±100 for the full control effect; potency is the fitted concentration of half-maximal effect; tags give direction and shape of the fitted curve.
Note: nearly all actives have a fitted effect of over 20% in size.

Sequence of UniProt P02791 (P02791 whole entry, looked up): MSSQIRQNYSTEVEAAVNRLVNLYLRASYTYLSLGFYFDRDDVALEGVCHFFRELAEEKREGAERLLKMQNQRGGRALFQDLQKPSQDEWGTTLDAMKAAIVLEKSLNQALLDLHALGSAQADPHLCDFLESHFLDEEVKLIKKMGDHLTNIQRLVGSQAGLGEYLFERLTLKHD

Potency, inconclusive:
COC(=O)COc1ccc2c(c1C)O/C(=C\c1ccco1)C2=O 39.8 µM [inhibitor, single point]
CC(Sc1nnc(C2CCCCC2)n1N)C(=O)NCc1ccc2c(c1)OCO2 (configuration not stated) 20 µM [inhibitor, partial curve]
CC(=O)c1sc2nc(CSc3nnnn3-c3ccccc3)[nH]c(=O)c2c1C 25.1 µM [inhibitor, partial curve]
CC(C)Oc1cccc(C(=O)C2CCCN(S(=O)(=O)C(C)C)C2)c1 (configuration not stated) 35.5 µM [inhibitor, single point]
O=C1/C(=C/c2ccc(F)cc2)SC(=S)N1CCCC(=O)N1CCCCC1CCO (configuration not stated) 39.8 µM [inhibitor, partial curve]
CN1CCc2nc3sc(C(=O)C45CC6CC(CC(C6)C4)C5)c(N)c3cc2C1 17.8 µM [inhibitor, partial curve]
Cn1ncc(Cl)c1C(=O)N1CCCc2ccccc21 44.7 µM [inhibitor, partial curve]
Cc1cc(F)c(F)c(C(=O)N2CCCCC2C)c1Cl (configuration not stated) 39.8 µM [inhibitor, single point]
CC(C)Sc1ncc(Cl)c(C(=O)N(Cc2ccc(N(C)C)cc2)C2CCS(=O)(=O)C2)n1 (configuration not stated) 50.1 µM [inhibitor, single point]
CN(C)c1nn(C(=O)Nc2ccc(Cl)cc2Cl)cc1-c1ccccc1 10 µM [inhibitor, partial curve]
COc1ccc(Br)cc1CN(C)C(=O)c1ccc2c(c1)NC(=O)C(C)S2 (configuration not stated) 31.6 µM [inhibitor, partial curve]
CCOc1ccc(/C=N\NC(=O)CC(=O)NCCc2ccccc2)cc1 10 µM [inhibitor, partial curve]
CC1c2cc3c(cc2CCN1C(=O)c1ccc(C(F)(F)F)cc1)OCCCO3 (configuration not stated) 31.6 µM [inhibitor, single point]
COc1ccc(CCNC(=O)c2nnc(Cc3c(F)cccc3Cl)o2)cc1OC 22.4 µM [inhibitor, partial curve]
O=c1ccc(/C=C/c2ccccc2)nn1Cc1ccccc1Cl 20 µM [inhibitor, partial curve]
CC(OC(=O)c1ccc2ccccc2n1)C(=O)Nc1ccc(N2CCOCC2)cc1 (configuration not stated) 25.1 µM [inhibitor, partial curve]
Cc1ccc(NC(=S)NC(=O)c2ccc(-c3ccc(Cl)cc3)o2)c(O)c1 6.31 µM [inhibitor, full curve, poor fit]
COc1cc(/C=N/NC(=O)CCC(=O)Nc2ccc(C)cc2)ccc1O 28.2 µM [inhibitor, partial curve]
COc1cc(/C=C2/SC(=O)NC2=O)ccc1OCc1ccccc1 56.2 µM [inhibitor, single point]
CCN(CC)C(=O)c1sc2c(c1C)c(=O)n(-c1ccc(OC)cc1OC)c(=O)n2CC(=O)c1ccc(Cl)cc1 28.2 µM [inhibitor, single point]
CN(C)/C=C/C(=O)c1ccc(-c2ccc(Cl)cc2Cl)o1 39.8 µM [inhibitor, single point]
CCOC(=O)Cc1csc(NC(=O)NC2(C(F)(F)F)Oc3cc(Cl)c(Cl)cc3O2)n1 50.1 µM [inhibitor, single point]
CC1C/C(=C/c2cccn2C)C(=O)/C(=C/c2cccn2C)C1 (configuration not stated) 31.6 µM [inhibitor, partial curve]
Cc1ccc(S(=O)(=O)NCCC2=CCCCC2)cc1C(N)=O 3.98 µM [inhibitor, full curve]
NC(=O)c1ccc(C(F)(F)F)n(Cc2cccc(Cl)c2)c1=O 35.5 µM [inhibitor, partial curve]
CC(C)(C)c1ccc(-c2nc(SCC(=O)Nc3ccc(Cl)cc3)[nH]c(=O)c2C#N)cc1 31.6 µM [inhibitor, partial curve]
CCC(C)(O)c1[nH]c2ccc(C(F)(F)F)cc2c1C (configuration not stated) 25.1 µM [inhibitor, partial curve]
CCOC(=O)C(CC)/C(C)=N\NC(=O)CCC(=O)Nc1ccc(Cl)cc1Cl (configuration not stated) 17.8 µM [inhibitor, partial curve]
COc1cccc(-n2c(-c3cccc(F)c3)nc3c(cnn3-c3ccc(C)cc3)c2=O)c1 7.94 µM [inhibitor, full curve, poor fit]
CCc1cnc2c(c1SCC(=O)c1ccc(OC)cc1)c(=O)n(C)c(=O)n2C 39.8 µM [inhibitor, single point]
CCOc1ccc(CN2CCNC(=O)C2CC(=O)NCCC2=CCCCC2)cc1 (configuration not stated) 17.8 µM [inhibitor, partial curve]
Cc1nn(C2CCCCC2)c(N)c1-c1ccccc1 22.4 µM [inhibitor, partial curve]
c1ccc(-c2noc(C34CC5CC(CC(C5)C3)C4)n2)cc1 28.2 µM [inhibitor, partial curve]
CCN(CC)S(=O)(=O)c1cc(C)ccc1NC(=S)Nc1cccnc1 22.4 µM [inhibitor, partial curve]
Cc1cc(SCC(=O)c2ccc3c(c2)OCO3)nc2ccccc12 14.1 µM [inhibitor, partial curve]
COc1ccc(-n2nnnc2SCC(=O)c2cc3ccccc3o2)cc1 31.6 µM [inhibitor, partial curve]
O=C(OCc1nnc(-c2ccccc2)o1)C12CC3CC(CC(Br)(C3)C1)C2 11.2 µM [inhibitor, partial curve]
N#C/C(=C/c1ccc(O)c(O)c1)C(=O)OC/C=C/c1ccccc1 31.6 µM [inhibitor, partial curve]
Cc1cccc2sc(NC(=O)c3ccc(OCC4CCCO4)cc3)nc12 (configuration not stated) 3.16 µM [inhibitor, full curve, poor fit]
O=C(NNC(=O)c1ccccc1O)c1cccc(Br)c1 50.1 µM [inhibitor, partial curve]
NC(=O)C1CC(=O)N(c2ccc(OCc3c(F)cccc3Cl)cc2)C1 (configuration not stated) 28.2 µM [inhibitor, partial curve]
Cc1cccc(Cc2c(C)nc3nc(SCC(=O)NCc4ccccc4)nn3c2C)c1 28.2 µM [inhibitor, partial curve]
Oc1ccc(N=Nc2ccc3ccccc3c2)cc1 3.16 µM [inhibitor, partial curve, poor fit]
Cc1cc(C(F)(F)F)nc(SCC(=O)NC2CC3CCC2C3)n1 (configuration not stated) 17.8 µM [inhibitor, partial curve]
Cc1ccc(OCCOc2cccc3ccc(C)nc23)c([N+](=O)[O-])c1 35.5 µM [inhibitor, partial curve]
Cc1cc(C)cc(Oc2c(C(F)(F)F)oc3cc(OCC(=O)NC4CCCCC4)ccc3c2=O)c1 1.12 µM [inhibitor, full curve, poor fit]
COc1ccccc1-n1c(COc2ccccc2-c2ccccc2)nnc1SCC(=O)c1c(N)n(C)c(=O)n(C)c1=O 6.31 µM [inhibitor, partial curve]
CCC(C)NC(=O)CCSc1nc(-c2ccc(OC)cc2)cc(C(F)(F)F)n1 (configuration not stated) 8.91 µM [inhibitor, full curve, poor fit]

Activity change, negative = displacement, inactive:
O=C(C#Cc1ccccc1)c1ccc([N+](=O)[O-])cc1 -17.4%
Cc1cc(C)c(S(=O)(=O)Nc2ccc(-c3ccc(N4CCCCCC4)nn3)cc2)c(C)c1 -7.74%
CCc1ccccc1NC(=O)C1(C)Cc2ccccc2C(=O)O1 (configuration not stated) -3.06%
CC(=O)N1N=C(c2ccc(C)o2)CC1c1ccc(Br)cc1 (configuration not stated) -12.2%
CCC(=O)Nc1ccc2c(c1)C(=O)N(C1CCCCC1)C2=O -10.9%
Cn1c(=N)n(CC(O)c2cccc3ccccc23)c2ccccc21 (configuration not stated) -21.2%
NC(=O)c1ccc2nc(-c3ccc(Oc4ccc(Cl)cc4)cc3)[nH]c2c1 66.9%
CC(=O)c1c(C)oc2ccc(N(C(C)=O)S(=O)(=O)c3ccc(F)cc3C)cc12 -1.74%
COc1nc(-c2ccccc2)ccc1-c1noc(-c2ccco2)n1 -3.72%
COc1ccc(CN2CCN(Cc3ccccc3F)CC2)cc1OC 0.336%
CCCCn1cnc2c(c1=O)c1nc3ccccc3nc1n2Cc1ccc2c(c1)OCO2 -8.59%
CCOc1cc(S(=O)(=O)N2CCN(S(=O)(=O)CC)CC2)c(OCC)cc1-n1cnnn1 -1.6%
COc1ccc([C@@H]2CNC(=O)C2)cc1OC1CCCC1 4.31% [at 29.3 µM]
Cn1cc(CN2CCC(n3nccc3NC(=O)CCc3ccccc3)CC2)cn1 -11.7%
COc1ccc(-c2noc(Cc3cccs3)n2)cc1 -12.3%
Cc1ccc(C)c2sc(N3CCN(C(=O)C(C)(C)C)CC3)nc12 -22.7%
CCC(=O)N1CCc2cc(Br)cc(S(=O)(=O)N3CCCC(C(=O)Nc4cccc(F)c4)C3)c21 (configuration not stated) -2.26%
N#CC(C#N)=C1C=C2C=C(N3CCCCC3)CCC2CC1 (configuration not stated) 8.08%
COc1ccc(-n2nc([N+](=O)[O-])c(=NCCc3ccccc3)n2O)cc1 0.993%

Reference: PubChem BioAssay AID485281 (National Center for Advancing Translational Sciences (NCATS), 2010)
